For the experiment, the target named is T1, biotinylated truncated STAT6 (123-632)-avi (Homo sapiens, UniProt P42226).
T1 sequence (P42226 123-632 limits assumed): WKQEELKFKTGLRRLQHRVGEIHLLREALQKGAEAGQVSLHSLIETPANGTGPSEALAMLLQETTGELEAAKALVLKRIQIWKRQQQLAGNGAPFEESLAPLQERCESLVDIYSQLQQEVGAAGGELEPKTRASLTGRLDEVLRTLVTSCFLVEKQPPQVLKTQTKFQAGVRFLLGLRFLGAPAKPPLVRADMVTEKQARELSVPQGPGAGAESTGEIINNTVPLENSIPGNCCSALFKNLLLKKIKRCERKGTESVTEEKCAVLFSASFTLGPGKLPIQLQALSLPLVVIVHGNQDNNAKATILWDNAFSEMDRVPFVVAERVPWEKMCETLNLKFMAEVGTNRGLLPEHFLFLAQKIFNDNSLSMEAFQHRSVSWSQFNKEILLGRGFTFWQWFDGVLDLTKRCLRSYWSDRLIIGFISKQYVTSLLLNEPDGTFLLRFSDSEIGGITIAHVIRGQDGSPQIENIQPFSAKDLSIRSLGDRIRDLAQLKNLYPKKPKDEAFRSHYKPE
The experiment is described as follows: Homogenous Time-Resolved Fluorescence (HTRF) binding assay. The settings on record: 0.15 nM biotinylated truncated STAT6 (123-632)-avi, 20 nM fluorescein-labeled probe, 30 minutes room temperature. A general note: TR-FRET usually uses a lanthanide donor and a delayed reading to cut background.

Take `COc1ccccc1-c1cc(C2=CCCN(C(=O)CCn3ccnn3)C2)c(F)c2[nH]c(C(=O)N3CCN(c4ncnc5c4oc4ccccc45)CC3)cc12` [Example I-1459]: the IC50 (in general, the midpoint of a concentration-inhibition curve) is < 100 nM.

With `COc1ccccc1-c1cc(C2=CCCN(C(=O)CCn3ccnn3)C2)c(F)c2[nH]c(C(=O)N3CCN(c4ccn5ncc(C#N)c5n4)CC3)cc12` [Example I-1460], the 50% inhibitory concentration (IC50) was < 100 nM.

Turning to `COC(=O)c1cnc2cc(N3CCN(C(=O)c4cc5c(-c6ccccc6OC)cc(C6=CCCN(C(=O)CCn7ccnn7)C6)c(F)c5[nH]4)CC3)ccc2c1` [Example I-1462], the IC50 is < 100 nM.

For the compound `COc1ccccc1-c1cc(C2=CCCN(C(=O)CCn3ccnn3)C2)c(F)c2[nH]c(C(=O)N3CCN(c4cncc5nccn45)CC3)cc12` [Example I-1463], the IC50 was < 100 nM.

For the compound `COc1ccccc1-c1cc(C2=CCCN(C(=O)CCn3ccnn3)C2)c(F)c2[nH]c(C(=O)N3CCC(C(=O)NCC4CC4)CC3)cc12` [Example I-1465], the 50% inhibitory concentration (IC50) was < 100 nM.

With `CN(C)C(=O)c1cc2ccc(C3=CCCN(C(=O)CCn4cccn4)C3)c(F)c2[nH]1` [Example I-1467], the IC50 was < 100 nM.

The compound `COc1ccccc1-c1cc(C(=O)N(C)C)cc2cc(C3=CCCN(C(C)=O)C3)[nH]c12` [Example I-1473] yielded an IC50 of 100 to 1000 nM.

For `COc1ccccc1-c1cc(C(=O)N(C)C)cc2sc(C3=CCCN(C(=O)CCn4cccn4)C3)nc12` [Example I-1478], the IC50 was < 100 nM.

On to `COc1ccccc1-c1cc(C2=CCCN(C(C)=O)C2)c(F)c2cc(-n3ccccc3=O)oc12` [Example I-1479], for which the IC50 lay within 100 to 1000 nM.

Regarding `COc1ccccc1-c1cc(C2CCCN(C(C)=O)C2)c(F)c2[nH]c(C(=O)N(C)C3CC3)cc12` (stereo not drawn) [Example I-1488], the concentration for half-maximal inhibition (IC50) lay within 1000 to 10000 nM.

For `CC(=O)N1CCC=C(c2cc(-c3ccc(C(=O)N4CCCC4)cc3)c3cc(C(=O)N(C)C)[nH]c3c2F)C1` [Example I-1492], the IC50 was < 100 nM.

Compound `CC(=O)N1CCC=C(c2cc(-c3cc(C(F)(F)F)nn3C)c3cc(C(=O)N(C)C)[nH]c3c2F)C1` [Example I-1493] returned an IC50 of 100 to 1000 nM.

`COc1ccc(-c2cc(C3=CCCN(C(C)=O)C3)c(F)c3[nH]c(C(=O)N(C)C)cc23)c(C#N)c1` [Example I-1494]: the IC50 lay in the range of 100 to 1000 nM.

In turn, `CC(=O)N1CCC=C(c2cc(-c3cc(F)ccc3C(F)(F)F)c3cc(C(=O)N(C)C)[nH]c3c2F)C1` [Example I-1495] returned a half-inhibitory concentration (IC50) of 100 to 1000 nM.

`CC(=O)N1CCC=C(c2cc(-c3ccc(CO)cc3)c3cc(C(=O)N(C)C)[nH]c3c2F)C1` [Example I-1496] displayed an IC50 of 100 to 1000 nM.

On to `CC(=O)N1CCC=C(c2cc(-c3ccnc(N4CCNCC4)c3)c3cc(C(=O)N(C)C)[nH]c3c2F)C1` [Example I-1497], for which the IC50 was 100 to 1000 nM.

`CC(=O)N1CCC=C(c2cc(-c3cc(C)nn3C)c3cc(C(=O)N(C)C)[nH]c3c2F)C1` [Example I-1498] registered an IC50 of 100 to 1000 nM.

Turning to `CN(C)C(=O)c1cc2cc(C3=CCCN(C(=O)CCn4ccnn4)C3)cc(NC3CCN(c4ccccn4)CC3)c2o1` [Example I-1499], the IC50 was < 100 nM.

Take `CC(=O)N1CCC=C(c2cc(-c3ccc4[nH]ccc4c3)c3cc(C(=O)N(C)C)[nH]c3c2F)C1` [Example I-1500]: the 50% inhibitory concentration (IC50) fell in the range of 100 to 1000 nM.

Take `COc1cc(C)c(-c2cc(C3=CCCN(C(C)=O)C3)c(F)c3[nH]c(C(=O)N(C)C)cc23)cc1C` [Example I-1501]: the IC50 was in the range of 100 to 1000 nM.

`CC(=O)N1CCC=C(c2cc(-c3ccc(-n4ccnn4)cc3)c3cc(C(=O)N(C)C)[nH]c3c2F)C1` [Example I-1503] displayed an IC50 of 100 to 1000 nM.

`COc1cc(-c2cc(C3=CCCN(C(C)=O)C3)c(F)c3[nH]c(C(=O)N(C)C)cc23)cc(OC)c1OC` [Example I-1504] came in with an IC50 of 100 to 1000 nM.

Compound `CC(=O)N1CCC=C(c2cc(-c3cnn(-c4ccccc4)c3)c3cc(C(=O)N(C)C)[nH]c3c2F)C1` [Example I-1505] returned an IC50 of 100 to 1000 nM.

Turning to `CC(=O)N1CCC=C(c2cc(-c3ccc(N4CCN(C)CC4)nc3)c3cc(C(=O)N(C)C)[nH]c3c2F)C1` [Example I-1506], the IC50 was in the range of 100 to 1000 nM.

Source of the values: US20250214977A1, “STAT6 INHIBITORS AND USES THEREOF” (Kymera Therapeutics, Inc., priority 2024, published 2025).
